Laboratory results published in US20190016784A1 (CSL BEHRING LENGNAU, published 2019).
Each block holds one binder with its values, some of them ahead of it.

What was measured:
[1] = target: T1, CSL627 (recombinant Factor VIII, rVIII-SingleChain) (human, UniProt P00451 20-2351); assay: SPR detailed kinetics at pH 7, 37 C; purified dimer from the single D1D2D′D3-HSA construct captured on anti-HSA antibody, CSL627 injected; 1:1 fit with mass transport
T1 construct: the tie is indirect; also called FVIII; CSL627-rVIII-SingleChain
T1 sequence: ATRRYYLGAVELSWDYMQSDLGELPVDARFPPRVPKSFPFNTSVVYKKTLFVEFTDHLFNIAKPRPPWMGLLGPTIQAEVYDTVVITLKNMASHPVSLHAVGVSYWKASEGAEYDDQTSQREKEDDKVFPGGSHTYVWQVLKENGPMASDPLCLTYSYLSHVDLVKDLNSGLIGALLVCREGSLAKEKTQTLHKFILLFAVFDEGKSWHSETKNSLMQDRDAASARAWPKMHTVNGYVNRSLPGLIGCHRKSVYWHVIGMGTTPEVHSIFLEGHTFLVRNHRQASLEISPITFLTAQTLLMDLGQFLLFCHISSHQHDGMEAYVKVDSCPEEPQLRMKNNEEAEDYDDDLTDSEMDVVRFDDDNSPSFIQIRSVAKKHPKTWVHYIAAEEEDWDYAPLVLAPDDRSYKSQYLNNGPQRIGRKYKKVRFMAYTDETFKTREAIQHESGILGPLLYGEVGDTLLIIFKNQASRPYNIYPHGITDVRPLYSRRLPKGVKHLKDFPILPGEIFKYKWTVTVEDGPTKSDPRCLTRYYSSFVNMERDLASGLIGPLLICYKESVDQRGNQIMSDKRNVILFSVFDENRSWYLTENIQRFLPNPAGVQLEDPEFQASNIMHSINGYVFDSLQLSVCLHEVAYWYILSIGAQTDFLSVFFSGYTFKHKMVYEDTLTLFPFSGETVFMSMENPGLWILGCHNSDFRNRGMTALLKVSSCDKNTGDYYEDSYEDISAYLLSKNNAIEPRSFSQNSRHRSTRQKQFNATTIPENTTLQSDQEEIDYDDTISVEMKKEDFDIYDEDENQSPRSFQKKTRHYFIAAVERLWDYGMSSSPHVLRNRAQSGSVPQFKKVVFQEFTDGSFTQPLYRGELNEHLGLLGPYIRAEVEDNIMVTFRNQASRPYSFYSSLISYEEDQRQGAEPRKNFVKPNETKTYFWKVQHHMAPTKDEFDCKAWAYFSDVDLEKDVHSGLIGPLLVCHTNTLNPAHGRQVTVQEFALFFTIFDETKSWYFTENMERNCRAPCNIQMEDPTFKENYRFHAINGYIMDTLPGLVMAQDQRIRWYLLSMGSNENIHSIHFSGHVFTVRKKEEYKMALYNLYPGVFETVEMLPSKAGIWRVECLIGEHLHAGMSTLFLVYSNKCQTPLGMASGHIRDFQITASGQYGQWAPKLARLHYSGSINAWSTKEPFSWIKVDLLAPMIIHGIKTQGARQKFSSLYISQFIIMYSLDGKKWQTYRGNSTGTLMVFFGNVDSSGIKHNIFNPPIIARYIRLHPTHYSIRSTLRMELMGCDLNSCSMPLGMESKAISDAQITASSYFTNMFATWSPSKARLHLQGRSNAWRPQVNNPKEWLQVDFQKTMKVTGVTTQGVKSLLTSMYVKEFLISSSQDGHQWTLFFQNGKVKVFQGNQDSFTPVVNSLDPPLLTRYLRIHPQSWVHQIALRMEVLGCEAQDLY
Procedure: (§1) Mouse anti-HSA antibody was immobilized on a CMS chip using standard NHS/EDC coupling chemistry. Typically, the immobilization level was about 14,000 RU. Each Dimer mutant of D′D3-HSA was captured on a single spot in each flow cell for 2 minutes at various concentrations ranging from 0.2-0.7 μg/ml. Capture levels ranged from 50-250 RU. An adjacent spot in which anti-HSA was immobilized, but no D′D3-HSA captured was used as a reference. Capture was performed every cycle, before FVIII (CSL627) binding analysis.
(§2) CSL627 was injected at random and in duplicate over all spots in all flow cells. […] The association was monitored for 5 minutes, while the dissociation was monitored for 20 minutes as well as for 1 hour at the 1 nM concentration. Buffer blanks were also injected. At pH5.5 CSL627 was injected at various concentrations and time frames that best suited the interaction taking place.
(§3) After the dissociation period the surface was regenerated with a 45 second injection of 25 mM Glycine pH2.6. Running buffer throughout was 10 mM HEPES, 150 mM NaCl, 10 mM Na Citrate, 2.5 mM CaCl2, 0.1% BSA, pH7.3 and pH5.5, while the flow rate was 30 μl/min. Each interaction was measured 4 times (n=4) at 37° C.

[2] = target: T1, CSL627 (recombinant Factor VIII, …); assay: SPR detailed kinetics at pH 5.5, 37 C; purified dimer from the single D1D2D′D3-HSA construct captured on anti-HSA antibody, CSL627 injected; 1:1 fit with mass transport
Procedure: as §1, §2, §3

[3] = target: T1, CSL627 (recombinant Factor VIII, …); assay: SPR at acidic pH (5.5), summary in the conclusion
[4] = target: T1, CSL627 (recombinant Factor VIII, …); assay: SPR at neutral pH, summary in the conclusion
[5] = target: T1, CSL627 (recombinant Factor VIII, …); assay: SPR detailed kinetics at pH 7, 37 C; purified D′D3-HSA dimer captured on anti-HSA antibody, Factor VIII (CSL627) injected; 1:1 fit with mass transport
Procedure: (§4) Subsequent experiments were conducted using purified material where detailed kinetic analysis at pH7 was set up for the top two candidates, including controls. vWF-HAS proteins were purified using Capture Select™ Human Albumin affinity resin and then the vWF-HAS dimer further purified by preparation Size Exclusion Chromatography. Purified material was then stored at 4° C. prior to analysis. […] In a similar manner detailed kinetic analysis on the top two candidates, including controls was set up at pH5.5 where Factor VIII was injected at various concentrations that best suited the interaction.
(§5) Throughout all experiments buffer blanks were also injected over all captured proteins. The association and dissociation of Factor VIII was monitored for 3 minutes respectively during the “screening” experiment. The association of CSL627 was monitored for 5 minutes and dissociation was monitored for 20 and 60 minutes during the “detailed kinetic analysis” experiments at neutral pH. At pH 5.5 the association and dissociation of Factor VIII was monitored for various time frames that best suited the interaction.
(§6) Responses for binding to the reference spot were subtracted from those of the vWF-HSA captured spots. Responses from blank injections were then subtracted from those of all other samples to produce double-referenced sensorgrams. Double referenced sensorgrams were fitted to a 1:1 kinetic model, including a term for mass transport limitation. Association and dissociation rates were fitted globally and Rmax fitted locally.

[6] = target: T1, CSL627 (recombinant Factor VIII, …); assay: SPR screen at pH 7; D′D3-HSA from culture supernatant captured on anti-HSA antibody, Factor VIII injected
Procedure: as §1, with “Each” for “Each Dimer”, “vWF-HSA” for “D′D3-HSA”, “0.1-1” for “0.2-0.7”, “100-200” for “50-250”, “FVIII” for “FVIII (CSL627)”
An initial experiment was set up at neutral pH to screen a series of mutations for the top affinity and off rate improved vWF-HSA mutants. […]
as §5

[7] = target: T1, CSL627 (recombinant Factor VIII, …); assay: SPR detailed kinetics at pH 5.5, 37 C; purified D′D3-HSA dimer captured on anti-HSA antibody, Factor VIII injected; 1:1 fit with mass transport
Procedure: as §4, §5, §6

Kd [1]: 0.00565 nM
koff [1]: 4.77e-05 s⁻¹
kon [1]: 8.59e+06 M⁻¹ s⁻¹
Kd [2]: 0.535 nM
koff [2]: 0.00189 s⁻¹
kon [2]: 3.61e+06 M⁻¹ s⁻¹
fold improvement in affinity compared to the wild-type dimer [3]: ~100 fold
fold improvement in off rate compared to the wild-type dimer [3]: ≥ 10 fold
fold improvement in affinity compared to the wild-type dimer [4]: ~20 fold
fold improvement in off rate compared to the wild-type dimer [4]: ~40 fold
B1: vWF D′D3-HSA dimer S764E, S766Y, V1083A (other)
chain: ELYCRPPMVKLVCPADNLRAEGLECTKTCQNYDLECMSMGCVSGCLCPPGMVRHENRCVALERCPCFHQGKEYAPGETVKIGCNTCVCRDRKWNCTDHVCDATCSTIGMAHYLTFDGLKYLFPGECQYVLVQDYCGSNPGTFRILVGNKGCSHPSVKCKKRVTILVEGGEIELFDGEVNVKRPMKDETHFEVVESGRYIILLLGKALSVVWDRHLSISVVLKQTYQEKVCGLCGNFDGIQNNDLTSSNLQVEEDPVDFGNSWKVSSQCADTRKVPLDSSPATCHNNIMKQTMVDSSCRILTSDVFQDCNKLVDPEPYLDACIYDTCSCESIGDCACFCDTIAAYAHVCAQHGKVVTWRTATLCPQSCEERNLRENGYECEWRYNSCAPACQVTCQHPEPLACPVQCVEGCHAHCPPGKILDELLQTCVDPEDCPVCEVAGRRFASGKKVTLNPSDPEHCQICHCDVVNLTCEACQEPGG[omitted - about 600 residues]
notes: also called EYA; EYA Dimer; not shown: glycine serine linker between VWF part and albumin

Kd [1]: 0.00496 nM
koff [1]: 6.44e-05 s⁻¹
kon [1]: 1.33e+07 M⁻¹ s⁻¹
Kd [2]: 2.93 nM
koff [2]: 0.0156 s⁻¹
kon [2]: 6.81e+06 M⁻¹ s⁻¹
Kd [5]: 0.0045 nM
koff [5]: 7.3e-05 s⁻¹
kon [5]: 1.63e+07 M⁻¹ s⁻¹
fold improvement in affinity compared to the wild-type dimer [4]: ~20 fold
fold improvement in off rate compared to the wild-type dimer [4]: ~40 fold
Kd [6]: 0.0301 nM
koff [6]: 0.000186 s⁻¹
kon [6]: 6.19e+06 M⁻¹ s⁻¹
Kd [7]: 4.05 nM
koff [7]: 0.00812 s⁻¹
kon [7]: 2.05e+06 M⁻¹ s⁻¹
B2: vWF D′D3-HSA dimer S764G, S766Y, V1083A (other)
chain: GLYCRPPMVKLVCPADNLRAEGLECTKTCQNYDLECMSMGCVSGCLCPPGMVRHENRCVALERCPCFHQGKEYAPGETVKIGCNTCVCRDRKWNCTDHVCDATCSTIGMAHYLTFDGLKYLFPGECQYVLVQDYCGSNPGTFRILVGNKGCSHPSVKCKKRVTILVEGGEIELFDGEVNVKRPMKDETHFEVVESGRYIILLLGKALSVVWDRHLSISVVLKQTYQEKVCGLCGNFDGIQNNDLTSSNLQVEEDPVDFGNSWKVSSQCADTRKVPLDSSPATCHNNIMKQTMVDSSCRILTSDVFQDCNKLVDPEPYLDACIYDTCSCESIGDCACFCDTIAAYAHVCAQHGKVVTWRTATLCPQSCEERNLRENGYECEWRYNSCAPACQVTCQHPEPLACPVQCVEGCHAHCPPGKILDELLQTCVDPEDCPVCEVAGRRFASGKKVTLNPSDPEHCQICHCDVVNLTCEACQEPGG[omitted - about 600 residues]
notes: Albumin fusion, dimer; treated as one molecule; also called GYA; GYA mutant; not shown: glycine serine linker between VWF part and albumin
